The list shows a part of the results.

This assay concerns the target T1, OsWOX13 (Oryza sativa, UniProt Q5QMM3 1-267).
T1 sequence: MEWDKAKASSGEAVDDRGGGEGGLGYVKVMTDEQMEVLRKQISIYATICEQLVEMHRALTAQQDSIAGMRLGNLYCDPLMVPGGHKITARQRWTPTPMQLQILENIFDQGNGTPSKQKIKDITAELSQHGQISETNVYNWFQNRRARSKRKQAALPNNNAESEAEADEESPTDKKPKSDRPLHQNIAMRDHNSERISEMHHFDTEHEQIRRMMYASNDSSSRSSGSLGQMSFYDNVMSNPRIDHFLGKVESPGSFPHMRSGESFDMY
Kind of assay: protein-binding microarray (RPBM); PBS, 2% BSA, 51.3 ng/ul salmon testes DNA, 50 uM zinc acetate, 200 nM TF, 25 C, 1 h; high values mean tight binding. Conditions: protein: recombinant; tags: N-terminal polyhistidine and DsRed monomer fusion (pET32a); label: CyDye5-dUTP incorporated in the synthesized complementary strand; 3' TTTTT single-stranded linker to array surface; dsDNA, one strand shown. The gist of the method:
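The binding signal is fluorescence intensity per array feature (arbitrary units). Readings came from an Axon 4000B scanner after a washed, 2% BSA-blocked, double-stranded custom Agilent array had been incubated for 1 h at 25 °C with 200 nM protein and 50 µM zinc acetate. The protein was a Ni–NTA-purified transcription factor fused N-terminally to polyhistidine and DsRed, expressed in E. coli BL21-CodonPlus.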
For “CTCTCTCCTTGGCCTCTTCCTCCCTGGTCGGTAGCGCAGCCGGAGTCACCTAGTGCAG”, the binding signal was 59600 fluorescence intensity (a.u.). With “TTCCTTTGATTGATCATGAGGTGGGCTGGGGCTGAGATGGCGGAGTCACCTAGTGCAG”, the binding signal was 59400 fluorescence intensity (a.u.). To “CAGCCGGATTGATTGCGTAGCTGTGTGCAAGGCTGGGCGACGGAGTCACCTAGTGCAG” belongs 35900 fluorescence intensity (a.u.). For “TTGATACTTAATTAATCATGTTGTTTTGTGTGCCCGGGGACGGAGTCACCTAGTGCAG”, the binding signal is 16600 fluorescence intensity (a.u.). On to “TTGCTGATTGTGAATGGTGGGTGCAAGGATACACTTTTCGCGGAGTCACCTAGTGCAG”, for which the binding signal was 23900 fluorescence intensity (a.u.). To “GTCTCAATCTAGTCATTCGTCCTGCTGGTGAGTTGATGTACGGAGTCACCTAGTGCAG” belongs 4610 fluorescence intensity (a.u.); to “ATAATCTAGATTATAATAATCCTATGCTGAACCAAACAGGCGGAGTCACCTAGTGCAG”, 10900 fluorescence intensity (a.u.); to “ATAAAATCACAAGAGTAAATTTGGGGCATAAGATTTTATTCGGAGTCACCTAGTGCAG”, 4400 fluorescence intensity (a.u.). In the case of “ACTGATGACTATGCTAGTGCCTACTAGTAACCAGTATACTCGGAGTCACCTAGTGCAG”, the binding signal was 3790 fluorescence intensity (a.u.). To “TTATTAGATGATGATTATTTTGAGAAGGTTTCTTAGGATGCGGAGTCACCTAGTGCAG” belongs 12900 fluorescence intensity (a.u.); to “CGTAAACATCTGATGAGTACCTCACATGTTGAACATCTCCCGGAGTCACCTAGTGCAG”, 3900 fluorescence intensity (a.u.); to “GACCTTTGGGTAGGGGTGGGGATGGGGCGAAATTACTAAACGGAGTCACCTAGTGCAG”, 6190 fluorescence intensity (a.u.). Regarding “TTCTACTAATCAGTCAAATAGGGCTCAATATGGATTAGTTCGGAGTCACCTAGTGCAG”, the binding signal is 4540 fluorescence intensity (a.u.). As to “ATTACATTGATAGCCTTTATGCAGTAAATTTGGCCAGCCTCGGAGTCACCTAGTGCAG”, the binding signal was 10100 fluorescence intensity (a.u.). To “AACAGTTCTGCTGAACCTCTTTTGCCTGCCCAAATCAAAACGGAGTCACCTAGTGCAG” belongs 7650 fluorescence intensity (a.u.); to “GTTGATCAAAGTTTTAAATTTTAACCAAATGTTGTCATAACGGAGTCACCTAGTGCAG”, 7850 fluorescence intensity (a.u.).

With “GGTAGATTAGATTAAGAGTAAACTGACTATATCTTAAACTCGGAGTCACCTAGTGCAG”, the binding signal was 28800 fluorescence intensity (a.u.). For the sequence “AAAGATTGATAATGCCAAATGTTGCCAATATAAAAGATGCCGGAGTCACCTAGTGCAG”, the binding signal is 44000 fluorescence intensity (a.u.). Next, “ACACCTAAATTAGATAGATCTGTTATCGAGAGTGTGGACTCGGAGTCACCTAGTGCAG”: 17500 fluorescence intensity (a.u.). Next, “AAATAAAAGGAGTATTAATTAGATAGTGACACCGTGTGACCGGAGTCACCTAGTGCAG”: 4970 fluorescence intensity (a.u.); “TAAAATTAGTCAAACTTAAAGCAGTTTGATTTTGACTAAACGGAGTCACCTAGTGCAG”: 3740 fluorescence intensity (a.u.); “TTTTGTGCAATCAGAACCTGTCAGATGAAGCTGTTGTTGGCGGAGTCACCTAGTGCAG”: 4120 fluorescence intensity (a.u.). Regarding “CAAATTTTGTCAATTTGGCAATATTGCCAAGTTTTGACATCGGAGTCACCTAGTGCAG”, the binding signal was 20800 fluorescence intensity (a.u.). Consider “TCAACATGATTATATAGCTATATGTTATCTAATTAATGCTCGGAGTCACCTAGTGCAG”, for which the binding signal was 18900 fluorescence intensity (a.u.). “CATTATTGAGTGGTACCAAGATTTCAGATTTCTTGCTCCCCGGAGTCACCTAGTGCAG”: the binding signal is 4490 fluorescence intensity (a.u.).

As to “TTGATTTGTTTTCTTAGCCATCTAAAGCATTGAATGGAGTCGGAGTCACCTAGTGCAG”, the binding signal is 14000 fluorescence intensity (a.u.). In the case of “TTTATTGACACTTCAGCTTATGTATTGACCTGTTATTTAGCGGAGTCACCTAGTGCAG”, the binding signal was 3540 fluorescence intensity (a.u.).

On to “TTTTCTAATCAATCTAGTTTCTTTAGCACTAAAACAATTGCGGAGTCACCTAGTGCAG”, for which the binding signal is 17100 fluorescence intensity (a.u.). Next, “CGGGATAATGATTATACACGGAATTACCACCGAAAGGGCCCGGAGTCACCTAGTGCAG”: 24200 fluorescence intensity (a.u.); “ACTAATTGCACATATTACGACTAATTTACCAGATGAATCTCGGAGTCACCTAGTGCAG”: 34700 fluorescence intensity (a.u.); “ATTTAAATTGCATGACTTTAAATATTAAAACAGTAATGATCGGAGTCACCTAGTGCAG”: 18600 fluorescence intensity (a.u.).

Consider “TCATAAACTTTTGTTTATTTACCATGCACCAGTTCTGCATCGGAGTCACCTAGTGCAG”, for which the binding signal is 4020 fluorescence intensity (a.u.). To “CCCACACCTGACAACCAATCACGTCTTGGTGGCCCACATCCGGAGTCACCTAGTGCAG” belongs 19500 fluorescence intensity (a.u.); to “ATAAATTACTGGTCATATGCAGGGAAGCATAACGTTGTTGCGGAGTCACCTAGTGCAG”, 16000 fluorescence intensity (a.u.). To “TTTTAGATTGGGTTATTTATAAGGCTAAGTTTTAATTTAACGGAGTCACCTAGTGCAG” belongs 4150 fluorescence intensity (a.u.); to “TACATACAGAGCTGATGATTGATCGTTGGAGACTAGTACTCGGAGTCACCTAGTGCAG”, 14100 fluorescence intensity (a.u.); to “ATTAAAATTATGTATGATCATGGCAAATCCGCCTTGTGCTCGGAGTCACCTAGTGCAG”, 8950 fluorescence intensity (a.u.). For “CAAAAGATGAGTGATTAGAGAATAAGATTGAGGTATGTTGCGGAGTCACCTAGTGCAG”, the binding signal is 11500 fluorescence intensity (a.u.). Next, “CTGTAATTTACTTAGGAAATTTTATAATTTTCTTATGGTACGGAGTCACCTAGTGCAG”: 28700 fluorescence intensity (a.u.); “GGCGGCGGCGGCGGGGCGGCGTGGCGCCGAGGGAGGGGAACGGAGTCACCTAGTGCAG”: 3580 fluorescence intensity (a.u.); “GTTTAATTGGTAATATTTCACATGCTATAAGCTAATTTTACGGAGTCACCTAGTGCAG”: 23800 fluorescence intensity (a.u.).

Take “TTGATTGGGTTCTCATCTTGTACCGCTTTGCTCGGCGCAGCGGAGTCACCTAGTGCAG”: the binding signal was 38300 fluorescence intensity (a.u.).

The values are drawn from paper PMC7819943, “Rice protein-binding microarrays: a tool to detect cis-acting elements near promoter regions in rice”.
